# Some of the results follow. At the low end of the ranking the order means little.
# Target: T1, GST-Rok-C97-191 (UniProt O34857)
# T1 sequence: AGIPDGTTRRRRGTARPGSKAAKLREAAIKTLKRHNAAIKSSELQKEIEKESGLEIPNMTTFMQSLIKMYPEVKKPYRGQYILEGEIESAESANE
# Assay: protein binding microarray;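 further: rank score from −0.5 (least bound) to 0.5 (best bound)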
# Details: Rok is a gene silencer of Bacillus subtilis; high values mean tight binding; most listed sequences are background and not binding sites; double strand, one strand shown
row,Sequence,binding signal [E-score]
1,CGTATCAC,0.0328
2,GATCCACC,-0.0485
3,AATGCTGA,0.0552
4,CTCTTAGC,-0.00517
5,CATATTAA,0.194
6,AGTACACG,0.055
7,CTTAGGCA,-0.0879
8,CTCAGCAA,0.126
9,AAACGGAA,0.0521
10,CATTTGTC,0.0421
11,GACCCCCA,-0.24
12,ATGCATGG,-0.0816
13,TATTTGGA,-0.063
14,AGATCCTA,0.2
15,GAGCCCGA,-0.211
16,ACGGGGAG,-0.228
17,GCATAGGA,0.0839
18,GGGACTGA,-0.159
19,AAACGACT,-0.00744
20,GGACCCCC,-0.381
21,AGTATGCG,0.178
22,CACAGATC,-0.114
23,TAGCAGGA,-0.0409
24,GACGTTAA,-0.0315
25,TCGGTTAA,0.145

row,Sequence,binding signal [E-score]
1,CTATACCA,0.201
2,AAATGTCA,0.174
3,CAGAGAGA,-0.071
4,GGAGCGTA,-0.111
5,CGGAGATC,-0.121
6,CAGTGTCA,-0.0837
7,CCCGTTCG,-0.103
8,AACTAGGG,-0.0014
9,CGACTTGC,-0.000418
10,GGGTTCTA,-0.209
11,GTTTGTTA,0.13
12,CTTTTTGA,-0.169
13,CTGGTAAA,0.213
14,GATGACCC,-0.1
15,ACTAGCCG,0.0929
16,AACCCGAA,-0.025
17,CATCGTTC,-0.12
18,ACGGTTAG,0.0379
19,GCAAGGCA,-0.144
20,AGACCGAT,0.00269
21,AACAGAGA,-0.109
22,GTAAGGAC,0.00285
23,AGCCGGCC,-0.197
24,CACGACGC,-0.112
25,CTGACTGC,-0.111

row,Sequence,binding signal [E-score]
1,ACTGCGCT,-0.118
2,CGGCGTGA,-0.241
3,GGTTAGAA,0.0886
4,AGAACCTG,-0.0905
5,AGCACCGA,-0.119
6,CAAGCTAA,-0.0479
7,CTAATTCC,0.159
8,GTCGGAGA,-0.381
9,CCTGGTGC,-0.137
10,ACGCAAGA,0.0168
11,CAGCGAAC,-0.14
12,AAACGGGA,-0.108
13,AAGGTGGT,-0.104
14,CACCGCCA,-0.201
15,AATTGGCT,0.106
16,CTAGTCCA,0.107
17,TAGTCACA,0.123
18,ACTATGAG,-0.0649
19,AGGCACCG,-0.232
20,CCAAGCGA,-0.195
21,CGGAGAAG,-0.176
22,AACTGATC,0.044
23,CGCCTCAG,-0.214
24,ACTCTTAG,0.131
25,CGAGGACA,-0.193

row,Sequence,binding signal [E-score]
1,GCGTTCAA,-0.08
2,CTGCGCCC,-0.144
3,CCATACCA,0.0276
4,TAATCGTA,0.126
5,AACACATC,-0.0947
6,CATCCTAG,-0.147
7,ATAGTGAC,0.0622
8,CCTTTGCA,-0.141
9,CAGTGGGG,-0.274
10,GGGAATCA,-0.102
11,AGGCACTA,-0.129
12,CAGAATCG,-0.0227
13,AGCGGAGC,-0.153
14,CGGCGACA,-0.294
15,CGTCGAAA,0.106
16,CTTCGTGC,-0.109
17,GAATTCTC,0.0595
18,ATATCGAT,0.297
19,CTTGGCGC,-0.298
20,GTGGGGTA,-0.0745
21,CAAGTCGA,-0.137
22,AGTTGGCG,-0.123
23,CTATTCAC,0.0435
24,CTGGTGTA,-0.103
25,CCAGATCG,-0.208

row,Sequence,binding signal [E-score]
1,AGCTTGAG,-0.0747
2,GCGCCCGA,-0.239
3,GTTTAGCA,-0.0989
4,ACAAGCAC,0.019
5,AAATCTGA,0.0714
6,GGGCTAAA,0.0429
7,GATACCTA,0.32
8,CGCCGGCA,-0.274
9,TATTTCCA,0.228
10,AAAAAACT,0.196
11,CGAGCTTC,-0.236
12,AGGGAGCA,-0.177
13,GAGCTAGC,0.0567
14,AACGCTGG,-0.171
15,TCGCTAGA,0.16
16,GGTCTGGA,-0.12
17,AGAGGGCA,-0.198
18,AACGCCGA,-0.144
19,GCTCATCA,-0.0849
20,TCAGGGCA,-0.0631
21,AATGCGAG,0.0809
22,AGGTATTA,0.201
23,ACTCGCGA,0.0858
24,AGCAAGAT,0.0224
25,AAGCAGCG,-0.259

row,Sequence,binding signal [E-score]
1,ATCCGACA,0.0458
2,AATTCGCC,0.0105
3,AAATTTTA,0.374
4,CGCGCGAC,0.00307
5,TACCCCAA,0.0587
6,AAAGAGAT,0.0526
7,CGTGAGTC,-0.19
8,ATCATGGG,-0.118
9,ACACTGTG,0.161
10,ACCACCGT,-0.0734
11,CATGGTGA,0.0231
12,CTCGTAAC,0.0109
13,GATATTAC,0.328
14,AGTTGGGG,-0.12
15,AAGCTCAG,-0.0431
16,AAGACTCC,-0.0595
17,TACTCGGA,-0.00726
18,GTCTCCAA,-0.229
19,CTTCGCAA,-0.12
20,AGCGATAG,0.03
21,AGTGCCAA,0.0368
22,CCCCGAAC,-0.298
23,TCCGCGGA,0.00675
24,AAATTGAT,0.0406
25,ATGGCCGC,-0.305

row,Sequence,binding signal [E-score]
1,AAACCCAA,0.0303
2,GAAGGCCC,-0.346
3,CCCCCTAC,-0.329
4,CGTAACGA,0.0667
5,GCTGTGCC,-0.166
6,CTCCAGCC,-0.0781
7,AGTGTGGA,-0.0965
8,ACGAAAGC,-0.163
9,GGTAATTA,0.395
10,TCCATACA,0.0803
11,CGTTCGCA,-0.219
12,TCTTCAAA,0.0119
13,AGCCGTAG,0.0411
14,ATCCTAGG,-0.0974
15,AGAGTATC,-0.0662
16,AACCCCCT,-0.308
17,ATCTCGTG,-0.163
18,ATCCAGCC,-0.213
19,CTTGATGA,-0.166
20,CCCCGGAG,-0.378
21,GTAAGCTA,0.149
22,CTCATATA,0.181
23,ACCCGCAG,-0.149
24,GAACCACC,0.0125
25,AGCATCAC,-0.0613

row,Sequence,binding signal [E-score]
1,GACCCGGC,-0.278
2,AATGGAAT,-0.0573
3,TCTCGGAA,0.127
4,AGCGGAAA,0.118
5,GATCAGGC,-0.106
6,AATGCGGC,0.0769
7,CGACTGTC,-0.12
8,AAGCCGAA,-0.0917
9,CCAGGCAA,-0.149
10,CGGTGGGA,-0.129
11,CTTAGCAC,0.0243
12,ATAACAGA,-0.0541
13,ACTCAAGA,-0.0762
14,ACGTTATA,0.17
15,AGTTAGGG,-0.0845
16,GCTTGGCA,-0.0903
17,ATTACGCA,0.139
18,CTATTGGC,-0.0724
19,AAGTGATC,-0.13
20,GCGATGCC,-0.131
21,ATTGGCAA,-0.139
22,ACACTACG,-0.0248
23,ACTAGAGT,0.0935
24,ACCCCTAA,-0.152
25,AGCCCTAA,-0.0469

row,Sequence,binding signal [E-score]
1,GGAACTAC,0.254
2,GAAGGTAC,-0.0392
3,CCTTCACA,-0.0294
4,AGAATAGA,0.0799
5,AATCGCAG,0.00983
6,AATCGGAT,-0.00728
7,CCCCCCGG,-0.283
8,AGGACCTA,0.0786
9,GTCATCAC,-0.236
10,CATGCCAC,-0.0775
11,CGTCTTTA,-0.0447
12,CCCTAAGG,-0.308
13,CGAGATAG,-0.00362
14,CACCGCTC,-0.0761
15,GATAAAGA,0.0459
16,AGTTAACC,-0.00883
17,AAGGCGAG,-0.307
18,AACTTCGG,-0.0354
19,AGTTCGCG,-0.00515
20,CCTTATAC,0.0775
21,CCTATCTA,0.319
22,CACTGTCA,-0.157
23,AAAAATAT,0.271
24,ATGTCCGA,-0.083
25,AATCGCTC,-0.0608

row,Sequence,binding signal [E-score]
1,CGGTCCAA,-0.143
2,ACGAGGCA,-0.269
3,ATCTAGTC,0.287
4,AATGCCGT,-0.019
5,ACACAACG,-0.0102
6,GAGCTAGA,0.107
7,GACTATAC,0.082
8,CCCATGGC,-0.285
9,CATGTGGG,-0.0551
10,CAATCCAA,0.104
11,GACGCCTA,-0.0181
12,ATGGGCGG,-0.156
13,GACTAAAA,0.144
14,ATACGCAC,0.0715
15,ACTCTTCT,-0.11
16,GACACCCA,-0.209
17,CGGCGTCA,-0.0944
18,CTGCGTAC,-0.112
19,CACTCCAC,-0.169
20,CCGTCTAG,-0.239
21,CGTCATAA,-0.0131
22,CCGTACAA,0.18
23,CTTAGGGA,-0.141
24,AAGTCACT,-0.167
25,ATGATGGA,0.00571

row,Sequence,binding signal [E-score]
1,ACGTCTGA,-0.0393
2,TCTATGCA,0.172
3,GAGGGCGA,-0.261
4,TCCTAGGA,0.0164
5,AGCAGAAT,-0.0636
6,ACAATCCG,-0.113
7,AGGGCTTC,-0.321
8,CTGCCTGC,-0.262
9,ATAAGTGC,0.186
10,CTGGATGA,-0.102
11,TCATGTAA,-0.0761
12,CTAAAAAG,0.0202
13,GCTCGTAA,0.0484
14,AGAAATAC,0.311
15,GAGGGTGA,-0.112
16,AGAATGAA,0.079
17,AGCAGGAA,-0.14
18,ACGGGTTC,-0.0135
19,ATAGCTCG,0.101
20,ACTGTCAA,0.0403
21,CAATAGCG,0.018
22,GATGGCCC,-0.293
23,AGAGAGCA,-0.148
24,ATCAATTC,0.142
25,AAACTGGA,0.0677

row,Sequence,binding signal [E-score]
1,AAGCGCAC,-0.167
2,AAAAAGCA,-0.0319
3,AGAGTGGC,-0.138
4,AAGAAGCT,-0.0225
5,CACGCCAA,-0.0207
6,GCCCTTCC,-0.229
7,AAAGATTT,-0.0491
8,AACTTGCG,0.08
9,TACAACAA,0.353
10,TGATCGAA,0.0159
11,AGGGCTCA,-0.271
12,GGGGTTTA,-0.266
13,CCTTCAGC,-0.152
14,AGATCGAC,0.102
15,GCCCAGGC,-0.25
16,AGAAAACT,0.21
17,CGATAAGC,0.0146
18,CGGGCCCG,-0.236
19,GGGTTTCA,-0.236
20,CACGAATG,-0.00797
21,GAAGGGCA,-0.202
22,ATTCAACG,-0.00565
23,GCTACGAA,0.115
24,TAATAGGA,0.219
25,GCACGAGC,-0.181

row,Sequence,binding signal [E-score]
1,AAGCTATA,0.238
2,ATACTAAC,0.103
3,AAACACGT,0.0495
4,GCATCAAA,0.0863
5,GAAGAGGC,-0.241
6,CTGAGGAC,-0.124
7,AAATTGCT,0.314
8,CTTCCAGA,-0.123
9,TGATCTAA,-0.00807
10,AACGAGAA,-0.0372
11,AACCCACG,-0.134
12,TGAACACA,-0.205
13,AGACGGTA,0.0923
14,AGGAGTCC,-0.0963
15,GCCAGACC,-0.259
16,GATGGTCA,-0.028
17,ACAAGCGG,-0.0216
18,CAAAAAAA,0.0672
19,CCACGCGC,-0.0582
20,AACCTACA,0.315
21,ATAAGAGC,0.152
22,AACACTAC,0.143
23,GAACCGGC,-0.0589
24,ACTAAGCT,0.115
25,CTAGCTCC,0.0154

row,Sequence,binding signal [E-score]
1,CACGATTA,-0.00565
2,CTCCGTAC,0.0194
3,GTGCTCCA,-0.193
4,ATAACCCG,-0.0342
5,ACTAGCTC,0.207
6,TGTTGAAA,0.107
7,GCAGAGCC,-0.374
8,CTCCTTCC,-0.215
9,GCCCCCCC,-0.319
10,CGCTCCAA,-0.198
11,ACGAACCT,-0.0562
12,CATCCAGG,-0.0899
13,AAGAGGTC,0.0527
14,AAGCTGGA,-0.0851
15,AACTGGAA,-0.00748
16,ATCCGAAA,-0.045
17,ACTGAGCG,-0.0359
18,ACCGCAGC,0.0454
19,ACCCAGAT,-0.0264
